Molecular target: the molecule itself
Assay: crystal structure

B1: McbC (enzyme, Escherichia coli)
chain: MSKHELSLVEVTHYTDPEVLAIVKDFHVRGNFASLPEFAERTFVSAVPLAHLEKFENKEVLFRPGFSSVINISSSHNFSRERLPSGINFCDKNKLSIRTIEKLLVNAFSSPDPGSVRRPYPSGGALYPIEVFLCRLSENTENWQAGTNVYHYLPLSQALEPVATCNTQSLYRSLSGGDSERLGKPHFALVYCIIFEKALFKYRYRGYRMALMETGSMYQNAVLVADQIGLKNRVWAGYTDSYVAKTMNLDQRTVAPLIVQFFGDVNDDKCLQ
- stoichiometry N: 2
